This sample is rich in variants without activity. Where only a bound is given, the exact number is not on record here.

Here are results for 83 variants from the RNAGym collection of RNA variant scans (doi:10.1073/pnas.2313332121).

To fix the notation:
B1: TPR 5TU (parent)
chain: GGAUCUUCUCGAUCUAACAAAAAAGACAAAUCUGCCACAAAGCUUGAGAGCAUCUUCGGAUGCAGAGGCGGCAGCCUUCGGUGGCGCGAUAGCGCCAACGUUCUCAACUAUGACACGCAAAACGCGUGCUCCGUUGAAUGGAGUUUAUCAUG

Variants of B1 are the subject of this series. Put plainly: polymerase ribozyme fitness, log enrichment relative to wild type (log ratio); higher = more active; in vitro selection for triplet polymerase activity. In outline: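 Mutant libraries of each subunit of a heterodimeric triplet polymerase ribozyme were built by PCR and transcribed. Each library went through one round of in vitro selection in triplicate: annealing with biotinylated primer, partner subunit and triplets, frozen incubation at −7 °C, gel excision of extended constructs, streptavidin-bead capture and RT-PCR. Input and output libraries were Illumina-sequenced; only genotypes with ≥10 input reads and ≥1 read per output were kept. Fitness is log2(genotype enrichment/wild-type enrichment), using inverse-variance-weighted replicate averages.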
On to C8A A73U G83A C93U A138C U145C, for which the “polymerase ribozyme fitness (log ratio)” value was no more than -4.2.

On to U7G A64C A122G, for which the “polymerase ribozyme fitness (log ratio)” value is no more than -4.2.

As for U7C A52U U55A G68C G83C C116A U148A, the “polymerase ribozyme fitness (log ratio)” value is no more than -4.2.

For the variant U7G C35A U55A A60C C87U G117U G128A, the “polymerase ribozyme fitness (log ratio)” value is no more than -4.2.

U7A C69U C72U U77G A89U C118U U130G U135A: the “polymerase ribozyme fitness (log ratio)” value was no more than -4.2.

C8A A52C C75U C95G C96U U109A: the “polymerase ribozyme fitness (log ratio)” value was no more than -4.2.

On to C8A A30C G59U G62C C85A, for which the “polymerase ribozyme fitness (log ratio)” value was no more than -4.2.

For U6G U31G U61A C95A G136A, the “polymerase ribozyme fitness (log ratio)” value is -1.38.

With C8A C14G G65U G83C A89U, the “polymerase ribozyme fitness (log ratio)” value was no more than -4.2.

For U7A A16U C43G G86U A97U U145A, the “polymerase ribozyme fitness (log ratio)” value is no more than -4.2.

U7G A40C G58A G70A C76A C132U: the “polymerase ribozyme fitness (log ratio)” value was no more than -4.2.

As for C8A A26U C35U A40G G88C U144A, the “polymerase ribozyme fitness (log ratio)” value was no more than -4.2.

Consider C8A A24G A49G A73C U77G C85A G136A, for which the “polymerase ribozyme fitness (log ratio)” value was no more than -4.2.

In the case of C8A A26C C27A C38G, the “polymerase ribozyme fitness (log ratio)” value is no more than -4.2.

Take U6G U33C U77C G80C C85G G86A G112U A120G U151C: the “polymerase ribozyme fitness (log ratio)” value was no more than -4.2.

C8A A29C C32U U77G C93G A121U G136C: the “polymerase ribozyme fitness (log ratio)” value is no more than -4.2.

For the variant C8A A16G A29U A47U G71U C93A A106G G133U C149U, the “polymerase ribozyme fitness (log ratio)” value was no more than -4.2.

Consider U7G G34U A60U C93U A107U, for which the “polymerase ribozyme fitness (log ratio)” value was no more than -4.2.

With U7C C35U U127G, the “polymerase ribozyme fitness (log ratio)” value is -3.61.

Consider C8A A21C A41G U77C G83C, for which the “polymerase ribozyme fitness (log ratio)” value is no more than -4.2.

For U7G C10A U53A U139A G141A, the “polymerase ribozyme fitness (log ratio)” value is no more than -4.2.

As for U7A A17G C51U A52G A73U C75U A97G A98U U139C G140C, the “polymerase ribozyme fitness (log ratio)” value was no more than -4.2.

U7G C36A: the “polymerase ribozyme fitness (log ratio)” value was no more than -4.2.

Regarding U7C C8G A28U G59A C96A C105G G126A, the “polymerase ribozyme fitness (log ratio)” value is no more than -4.2.

For U7G U130A, the “polymerase ribozyme fitness (log ratio)” value is -4.18.

With C8A A17U U55A G81C C87A A91U U144C U145C, the “polymerase ribozyme fitness (log ratio)” value is no more than -4.2.

For the variant U7G A21G C57G U127G U130G C131U U135G U148A, the “polymerase ribozyme fitness (log ratio)” value is no more than -4.2.

On to U7G G25C U45A C51U C85A U134C U145C, for which the “polymerase ribozyme fitness (log ratio)” value was no more than -4.2.

Turning to U7G G58A C63G C85U C129G, the “polymerase ribozyme fitness (log ratio)” value was no more than -4.2.

Take U7C C38A C51G G83U G84A: the “polymerase ribozyme fitness (log ratio)” value was no more than -4.2.

Turning to U7A A23U A29G G50C C54A G88A A138U, the “polymerase ribozyme fitness (log ratio)” value was no more than -4.2.

Turning to U7A A28U G67C C87U C96G C123A, the “polymerase ribozyme fitness (log ratio)” value is no more than -4.2.

Take U7C A19G A20C G25C C35U C57G C69U C79G: the “polymerase ribozyme fitness (log ratio)” value is no more than -4.2.

As to U7G C10A A52C C76G C93A A138G U139A U148G, the “polymerase ribozyme fitness (log ratio)” value is no more than -4.2.

For U6G U53A C125G C132U U148C, the “polymerase ribozyme fitness (log ratio)” value is no more than -4.2.

With U7A C27U U101G U102A U145C, the “polymerase ribozyme fitness (log ratio)” value was no more than -4.2.

As to C8A A52G U61A C76U G124C, the “polymerase ribozyme fitness (log ratio)” value is no more than -4.2.

Regarding C8A A12U C14U U56A C57U U82A G84A G92U A106C G143C, the “polymerase ribozyme fitness (log ratio)” value was no more than -4.2.

U7A A23G G48A G81A G84U A115C C116G G141U: the “polymerase ribozyme fitness (log ratio)” value was no more than -4.2.

As for U7C C79U G80U G94U A119C A147U, the “polymerase ribozyme fitness (log ratio)” value was no more than -4.2.

Regarding C8A C10G C18U A21U C54A C87U A120G, the “polymerase ribozyme fitness (log ratio)” value was no more than -4.2.

C8A A52C C87A: the “polymerase ribozyme fitness (log ratio)” value is no more than -4.2.

As to U7G C85G A107G, the “polymerase ribozyme fitness (log ratio)” value is no more than -4.2.

For U7C A20G C93U, the “polymerase ribozyme fitness (log ratio)” value is no more than -4.2.

As for U7A C54A C72A, the “polymerase ribozyme fitness (log ratio)” value was no more than -4.2.

With U7C C27U A39G C54U U55A G74U C85U C149G, the “polymerase ribozyme fitness (log ratio)” value was no more than -4.2.

Take U7C U45G G83C G128U C132G A147C: the “polymerase ribozyme fitness (log ratio)” value is no more than -4.2.

Take U7G A22C A28U A39G C87A G126U C129U: the “polymerase ribozyme fitness (log ratio)” value was no more than -4.2.

For the variant C8A C14U A16U U33G A47U C57A C93A A142U, the “polymerase ribozyme fitness (log ratio)” value is no more than -4.2.

With U7C A19U C35U A37G U55G C76G G86A G88U C103G G124A, the “polymerase ribozyme fitness (log ratio)” value is no more than -4.2.

For C8A A19G C57G G88A U146G, the “polymerase ribozyme fitness (log ratio)” value was no more than -4.2.

On to U7G G42C U61A C96U G112C G124C G126C G136A, for which the “polymerase ribozyme fitness (log ratio)” value is no more than -4.2.

As to U7C A12C C87A C105A C116G A138U G152U, the “polymerase ribozyme fitness (log ratio)” value was no more than -4.2.

As for U7A U33G C79A C116U U144C, the “polymerase ribozyme fitness (log ratio)” value was no more than -4.2.

U7C G81A C93G U148G: the “polymerase ribozyme fitness (log ratio)” value was no more than -4.2.

Turning to U7C C8U C10U A16C U33G A47C A64U G136C U144G, the “polymerase ribozyme fitness (log ratio)” value is no more than -4.2.

As to U7A U45A C57A C85G, the “polymerase ribozyme fitness (log ratio)” value was no more than -4.2.

U7G C10A A23U A30U U90A G92U A115C C116U U135A G136C: the “polymerase ribozyme fitness (log ratio)” value is no more than -4.2.

Regarding U7A A24C A47C U109C A120U, the “polymerase ribozyme fitness (log ratio)” value is no more than -4.2.

For the variant U7A G70C, the “polymerase ribozyme fitness (log ratio)” value is no more than -4.2.

U7G G50C C87G C125U G133A G140A A142U: the “polymerase ribozyme fitness (log ratio)” value was no more than -4.2.

Turning to U7A C36G A39U A89G G94C A137U A138U, the “polymerase ribozyme fitness (log ratio)” value was no more than -4.2.

On to U7G A26U U56G G59C G83A C96U A138C, for which the “polymerase ribozyme fitness (log ratio)” value was no more than -4.2.

For U6G U90G, the “polymerase ribozyme fitness (log ratio)” value is no more than -4.2.

For the variant U7A G34A U55G G84A A138G U146G, the “polymerase ribozyme fitness (log ratio)” value is no more than -4.2.

Regarding C8A A17G C36U G86C G133C, the “polymerase ribozyme fitness (log ratio)” value was no more than -4.2.

As to U7G A20U A39C C93A G100A G126A U127G C149U, the “polymerase ribozyme fitness (log ratio)” value is no more than -4.2.

For the variant U7C A29G G83A A122C, the “polymerase ribozyme fitness (log ratio)” value is no more than -4.2.

Consider U7G G67C G86U C105G C132G U145G, for which the “polymerase ribozyme fitness (log ratio)” value was no more than -4.2.

U7G A29U U53A C75U G81U C95U A98U C105G A106U: the “polymerase ribozyme fitness (log ratio)” value was no more than -4.2.

With U7C A17C G46U U78A G86C U90G A122U G143U, the “polymerase ribozyme fitness (log ratio)” value is no more than -4.2.

Consider C8A A49C A119C A121U, for which the “polymerase ribozyme fitness (log ratio)” value is no more than -4.2.

With U7A A110C A138U, the “polymerase ribozyme fitness (log ratio)” value is no more than -4.2.

Regarding U7A U53A A73G C85A C125G U145C, the “polymerase ribozyme fitness (log ratio)” value was no more than -4.2.

With U7A A22C U61A G68A G94U A113G G117U G126A U151A, the “polymerase ribozyme fitness (log ratio)” value is no more than -4.2.

Take U6G U56A G70C C85G A107U U144G: the “polymerase ribozyme fitness (log ratio)” value is no more than -4.2.

For the variant U7C A29U C57U C95G G140U, the “polymerase ribozyme fitness (log ratio)” value is no more than -4.2.

As for U7A G11A A41G A66C U77C C85U A106C U151A, the “polymerase ribozyme fitness (log ratio)” value was no more than -4.2.

Turning to U7C A16U U53C G74A C79U G81U A91U G94C A97U, the “polymerase ribozyme fitness (log ratio)” value is no more than -4.2.

On to U7G C8G U45G A66U C85U A138U, for which the “polymerase ribozyme fitness (log ratio)” value is no more than -4.2.

With C8A A22C U44A G81A G94C C108A, the “polymerase ribozyme fitness (log ratio)” value is no more than -4.2.

In the case of U7A C76U G94A C105U U151A, the “polymerase ribozyme fitness (log ratio)” value is -3.84.

U7G G25U U31G C35U G42A C57G C76U C79A G117A A147C: the “polymerase ribozyme fitness (log ratio)” value is no more than -4.2.
